Structures are written as SMILES. Where “and” joins values, the source holds several entries; their conditions need not be identical. Equal values may be shown once. Where a name gives a salt, the structure may show the parent alone. ± gives the standard deviation of the averaged measurements. Over roughly 3,200 compounds, “nuclei count (viability) relative to DMSO” has its median near 99; the lowest 2% begin near 16. This is one part of the list.

For this experiment, the system named is U2OS. Kind of experiment: nuclei count (viability) relative to DMSO (% of DMSO); higher = more viable cells. Particulars: 10 µM; 24 h. As for the experimental part:
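Primary image-based screen in U2OS cells: compounds at 10 uM for 24 h, then a 1 h o-propargyl-puromycin (OPP) pulse, click labelling, and high-throughput microscopy. Mean cytoplasmic OPP intensity and nuclei count were normalised to DMSO wells within each plate (DMSO = 100) and averaged over triplicate plates.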
The compound `O=C(O)c1cc(=O)c2ccccc2[nH]1` [Kynurenic acid] displayed a nuclei count of 102.
In the case of `O=c1cc(N2CCOCC2)oc2c(-c3ccccc3)cccc12`, the nuclei count is 91.7 and 101.
`CN1c2ccccc2C(=O)N2CCc3c([nH]c4ccccc34)C21` (stereo in doubt) [Evodiamine (Isoevodiamine)] returned a nuclei count of 45.4.
Take `CCCCCCCCOc1ccccc1C(=O)Nc1ccc(C(=O)OCC[N+](C)(CC)CC)cc1` [Otilonium Bromide]: the nuclei count was 110.
In turn, `CN1CCCN(C(=O)c2cccc(-c3ccc(/C=C4/C(=O)Nc5ccc(Cl)cc54)o3)c2)CC1` came in with a nuclei count of 6.22.
`CN1CCN2c3ccccc3Cc3ccccc3C2C1` (stereo not drawn) [Mianserin hydrochloride] came in with a nuclei count of 110.
Turning to `CN1CCN2c3ccccc3Cc3ccccc3C2C1` (stereo not drawn) [Mianserine hydrochloride], the nuclei count was determined as 107.
As to `N[C@@H](Cc1ccc(O)c(O)c1)C(=O)O` [Levodopa], the nuclei count stood at 96.3.
The same measure for `CCS(=O)(=O)N(C)[C@H]1c2cc(C#N)ccc2OC(C)(C)[C@@H]1O` (racemic) [Chromanol 293B]: 92.
`O=C(O)CCC(=O)c1ccc(-c2ccccc2)cc1` [Fenbufen] came in with a nuclei count of 105.
`O=C(Nc1ccccc1)N1CCN(c2nc(-c3ccccc3)ns2)CC1` returned a nuclei count of 102.
In the case of `CC(C)SC(=N)N` [S-Isopropylisothiourea hydrobromide], the nuclei count was determined as 98.3.
In the case of `CC1(COc2ccc(CC3SC(=O)NC3=O)cc2)CCCCC1` (stereo not drawn) [Ciglitazone] it was 97.9 ± 1.8; in that of `Cn1nc(C(C)(C)C)cc1C(=O)N[C@@H](Cc1cccc(Cl)c1)C(=O)NCC#N` [Cathepsin Inhibitor 1], 107; in that of `CN(C)CCc1c[nH]c2ccc(CS(=O)(=O)N3CCCC3)cc12` [Almotriptan malate (Axert)], 99.1.
In the case of `CN(c1ncccc1CNc1nc(Nc2ccc3c(c2)CC(=O)N3)ncc1C(F)(F)F)S(C)(=O)=O`, the nuclei count was 40.2 and 40.1.
For `C[N+](C)(C)CCOC(N)=O` [Carbachol], the nuclei count is 101.
In turn, `CC(C)(C)NC[C@H](O)COc1cccc2c1CCCC2=O` [(-) -Levobunolol hydrochloride] showed a nuclei count of 90.6.
`CC(C)c1cc(C(C)C)c(CC(=O)NS(=O)(=O)Oc2c(C(C)C)cccc2C(C)C)c(C(C)C)c1` [Avasimibe (CI-1011)]: the nuclei count was determined as 99.4.
As for `COc1ccc(-c2oc3cc(OC)ccc3c2C(=O)c2ccc(C#N)cc2)cc1`, the nuclei count was 95.8.
With `COC(=O)/C=C/C(=O)OC` [Dimethyl Fumarate], the nuclei count stood at 106.
In the case of `Nc1ncn(C2OC(CO)C(O)C2O)c(=O)n1` (stereo not drawn) [Azacytidine-5] it was 53.2.
`CCN1C(=O)C=CC1=O` [N-Ethylmaleimide] displayed a nuclei count of 98.6 ± 2.1.
In the case of `O=C(NC(Cc1cc(=O)[nH]c2ccccc12)C(=O)O)c1ccc(Cl)cc1` (stereo not drawn) [Rebamipide] it was 101; in that of `O=C1c2c(O)ccc(O)c2C(=O)c2c(NCCNCCO)ccc(NCCNCCO)c21` [Mitoxantrone dihydrochloride], 15.5; in that of `CCOC(=O)C1=C(C)NC(C)=C(C(=O)OC)C1c1cccc(Cl)c1Cl` (stereo not drawn) [Felodipine], 113.
The same measure for `Cc1nc2sccn2c(=O)c1CCN1CCC(=C(c2ccc(F)cc2)c2ccc(F)cc2)CC1` [Ritanserin]: 101; for `Cc1oc(S(=O)(=O)N2CCCCC2)cc1NC(=O)Nc1ccccc1`: 107; for `C[C@H](CCC(=O)O)[C@H]1CC[C@H]2[C@@H]3C(=O)C[C@@H]4CC(=O)CC[C@]4(C)[C@H]3CC(=O)[C@]12C` [Dehydrocholic acid]: 100.
Compound `COc1cc2nc(N3CCCN(C)CC3)nc(NC3CCN(Cc4ccccc4)CC3)c2cc1OC` had a nuclei count of 20.1.
In turn, `O=S(=O)(c1cccc2cnccc12)N1CCCNCC1` [Fasudil hydrochloride] showed a nuclei count of 106.
In turn, `O=S(=O)(c1cccc2cnccc12)N1CCCNCC1` [Fasudil HCl (HA-1077)] returned a nuclei count of 99.5.
The same measure for `CC(C)c1cnn2c(NCc3ccccc3)cc(NCCCCCCN)nc12`: 89.2; for `CCc1nn(CCCN2CCN(c3cccc(Cl)c3)CC2)c(=O)n1CCOc1ccccc1` [Nefazodone HCl]: 104.
The compound `CCc1nn(CCCN2CCN(c3cccc(Cl)c3)CC2)c(=O)n1CCOc1ccccc1` [Nefazodone hydrochloride] displayed a nuclei count of 114.
`CC(NCCc1ccc(O)cc1)C(O)c1ccc(O)cc1` (stereo not drawn) [Ritodrine hydrochloride] showed a nuclei count of 108.
As to `C[N+](C)(CCOc1ccccc1)Cc1ccccc1.O=C([O-])c1cc2ccccc2cc1O` [Bephenium hydroxynaphthoate], the nuclei count turned out to be 99.3.
For the compound `C[C@H](Nc1ncnc2nc[nH]c12)c1cc2cccc(Cl)c2c(=O)n1-c1ccccc1` [Duvelisib (IPI-145, INK1197)], the nuclei count worked out at 94.6.
Consider `C[C@H](Nc1ncnc2nc[nH]c12)c1cc2cccc(Cl)c2c(=O)n1-c1ccccc1`, for which the nuclei count was determined as 98.
For the compound `CC(C)(O)CC(=O)NCCn1ccc2ncnc(Nc3ccc(Oc4cccc(C(F)(F)F)c4)c(Cl)c3)c21`, the nuclei count turned out to be 98.3 ± 7.3.
As for `NC1CCN(c2c(F)cc3c(=O)c(C(=O)O)cn(C4CC4)c3c2Cl)C1` (stereo not drawn) [Clinafloxacin], the nuclei count stood at 109.
Take `CCC1(C)CC(=O)NC1=O` (stereo not drawn) [Ethosuximide]: the nuclei count was found to be 109.
For the compound `CCCNC(C)(C)COC(=O)c1ccccc1` [Meprylcaine hydrochloride], the nuclei count came to 111.
In the case of `CCCc1nn(C)c2c(=O)[nH]c(-c3cc(S(=O)(=O)N4CCN(C)CC4)ccc3OCC)nc12` [Sildenafil], the nuclei count was 108.
`CN(C[C@@H]1COCCO1)S(=O)(=O)Nc1ccc2ccc3ncc(-c4cnn(C)c4)cc3c(=O)c2c1` came in with a nuclei count of 84.71 ± 0.55.
The compound `COc1cc(CNC(=O)CCCCCCC(C)C)ccc1O` [Dihydrocapsaicin] showed a nuclei count of 106.
In the case of `N#CC[C@H](C1CCCC1)n1cc(-c2ncnc3[nH]ccc23)cn1`, the nuclei count came out at 93.5 ± 11.
`CCOC(=O)CC(=O)N1CCSC1COc1ccccc1OC` (stereo not drawn) [Moguisteine] returned a nuclei count of 97.1.
`CC(=O)Oc1ccc(C(c2ccc(OC(C)=O)cc2)c2ccccn2)cc1` [Bisacodyl] returned a nuclei count of 91.8.
Turning to `Cc1ccc(C(=O)c2cc(/C=C/C(=O)NO)n(C)c2)cc1`, the nuclei count worked out at 92.7.
Regarding `CCCCS(=N)(=O)CCC(N)C(=O)O` (stereo not drawn) [Buthionine sulfoximine], the nuclei count came to 105.
As to `CCC(C)(C)C(=O)O[C@H]1C[C@@H](C)C=C2C=C[C@H](C)[C@H](CC[C@@H]3C[C@@H](O)CC(=O)O3)[C@H]21` [Simvastatin (Zocor)], the nuclei count worked out at 98.1.
The same measure for `CCC(C)(C)C(=O)O[C@H]1C[C@@H](C)C=C2C=C[C@H](C)[C@H](CC[C@@H]3C[C@@H](O)CC(=O)O3)[C@H]21` [Simvastatin]: 98.43 ± 0.11.
